The values that follow come from PubChem BioAssay AID1346428 (National Center for Advancing Translational Sciences (NCATS), 2018).

The structures appear in SMILES notation. Several values for one entry are separate records, joined by “and”; a condition that tells them apart may be missing. Identical values can stand only once. Out of some 48,000 compounds screened, about 1,200 (2.5%) were called active. Another 2% or so got no clear call; they are omitted.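 Rule for the calls: active = activation of at least 60% and not above a set upper limit (about 1 call in 100 departs from these limits); inconclusive = activation of 40% to 60%, or above that upper limit; inactive = activation under 40%.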 Some of the results follow.

This experiment addresses Probable G-protein coupled receptor 32 (Homo sapiens) (UniProt O75388). The experiment is described as follows: qHTS for Agonists of Human Resolvin D1 Receptor DRV1. Note: 0% is about no effect. Particulars: CHO-K1 GPR32 beta-arrestin PathHunter luminescence, 90 min; at 76.9 µM; stronger effect = higher value; zero percent set by DMSO-only wells. A digest of the protocol: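 GPR32 activation in stably transfected CHO-K1 cells, detected as beta-arrestin recruitment by enzyme-fragment complementation. Compound exposure: 90 min, 37 °C.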
Sequence of UniProt O75388 (O75388 whole entry, looked up, the tested form may be a part): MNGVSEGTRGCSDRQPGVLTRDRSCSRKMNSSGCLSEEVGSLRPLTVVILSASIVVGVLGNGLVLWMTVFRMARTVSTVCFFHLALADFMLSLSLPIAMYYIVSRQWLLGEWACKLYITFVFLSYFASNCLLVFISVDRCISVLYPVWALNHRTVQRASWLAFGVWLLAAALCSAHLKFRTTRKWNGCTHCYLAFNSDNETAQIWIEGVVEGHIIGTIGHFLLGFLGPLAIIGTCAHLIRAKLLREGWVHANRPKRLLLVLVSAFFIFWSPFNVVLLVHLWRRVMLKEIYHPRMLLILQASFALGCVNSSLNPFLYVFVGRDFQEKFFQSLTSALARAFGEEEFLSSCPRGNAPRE
(Quantitative high-throughput screening tests each substance at several concentrations.)
`COC(=O)[C@@H](N)CCCN=C(N)N[N+](=O)[O-]`: the activation is inactive: -2.97%. The figure for `NNC(=O)c1ccc(O)cc1` is inactive: 4.55%; for `CCCC12CN3CC(C)(CN(C1)C3c1c(C)[nH]c(=O)[nH]c1=O)C2=O` (configuration not stated) it is inactive: 1.45%.

As to `C[C@]12CC[C@H]3[C@@H](CC[C@@]45O[C@H]4C(O)=C(C#N)C[C@]35C)[C@H]1CC[C@H]2O`, the activation is inactive: -7.27%. The figure for `CC(C)(C)NCC(O)c1cc(Cl)c(N)c(Cl)c1` (configuration not stated) is inactive: 6.55%; for `Fc1ccc(C(OCCN2CCN(CCCc3ccccc3)CC2)c2ccc(F)cc2)cc1` it is inactive: -4.67% and inactive: -13.9%. The figure for `N[C@@H](CCl)C(=O)O` is inactive: 0.662%. The value for `CN(C)c1ccc(NC(=O)c2sc3nc4c(cc3c2N)N2CCC4CC2)cc1` was inactive: 3.69%; that for `C=C(C)[C@H]1Cc2c(ccc3c2O[C@@H]2COc4cc(OC)c(OC)cc4[C@@H]2C3=O)O1` was inactive: 20.9% and inactive: 34.9%; that for `COC(=O)C1=CCCN(C)C1` was inactive: 9.51% and inactive: -2.45%. Regarding `Cc1c(C(c2ccc(Br)cc2)c2c(O)c3ccccc3oc2=O)c(=O)n(-c2ccccc2)n1C` (configuration not stated), the activation is inactive: 0.698%. The value for `Cc1ccc(Cn2cccc(C(=O)Nc3cc(C)on3)c2=O)cc1` was inactive: 29.6%; that for `NNC(N)=O` was inactive: -1.16%. The figure for `O=C(NC(=O)c1c(F)cccc1F)Nc1cc(Cl)c(OC(F)(F)C(F)C(F)(F)F)cc1Cl` (configuration not stated) is inactive: -3.94%.

Consider `Cc1ccccc1-n1c(/C=C/c2c(C)[nH]c3ccccc23)nc2ccccc2c1=O`, for which the activation was inactive: -28.1%. The figure for `CNCC(=O)c1ccc(O)c(O)c1` is inactive: -8.99%; for `COc1ccc(OCC(=O)N2CCN(CCc3ccncc3)CC2)cc1` it is inactive: -15%; for `CC1=C2[C@H]3OC(=O)[C@@H](C)[C@@H]3CC[C@@]2(C)C=CC1=O` it is inactive: -0.399%. The figure for `COP(=S)(OC)SCN1C(=O)c2ccccc2C1=O` is inactive: -3.01%; for `C1CN2CCC1CC2` it is inactive: 15.1%; for `Cc1ccccc1OCC(=O)N1CCN(CCc2ccccn2)CC1` it is inactive: 10.8%.

Turning to `c1ccc(C2(c3ccccc3)CC2C2=NCCN2)cc1` (configuration not stated), the activation was inactive: -6.28%. The figure for `CCCN(CCC)C1CCc2ccc(O)cc2C1` (configuration not stated) is inactive: 15.7%; for `O=[N+]([O-])c1c2ccccc2cc2ccccc12` it is inactive: 42.2%; for `O=C(Nc1ccc2c(c1)OCO2)c1cccn(Cc2cccc([N+](=O)[O-])c2)c1=O` it is inactive: -4.69%. The value for `COc1ccc(NC(=O)CCc2nc(C3=CCN(Cc4cccc(Cl)c4)CC3)no2)c(OC)c1` was inactive: 27.2%; that for `O=S1(=O)N(Cc2ccccc2Cl)CCCN1Cc1ccccc1Cl` was inactive: -15.2%; that for `Cc1cccc(-c2nn3c(=O)cc(CN4CCN(C(=O)COc5ccc(Cl)cc5)CC4)nc3s2)c1` was inactive: 4.78%. The figure for `CN(N=O)c1cc(O)ccc1O` is inactive: 23.7%; for `CC(C)=CCN1CC[C@@]2(C)c3cc(O)ccc3C[C@@H]1[C@@H]2C` it is inactive: 20.5%. In the case of `CC(N)Cc1c[nH]c2ccc(O)cc12` (configuration not stated), the activation was inactive: -5.74%.

Regarding `O=c1c2ccccc2nc(/C=C/c2ccccc2F)n1-c1cccc(O)c1`, the activation was inactive: -33.1%. The figure for `CCc1nc(SC)ncc1C(=O)Nc1ccc(Cl)cc1C(=O)c1ccccc1` is inactive: -16.4%. The value for `COc1cccc(C2SCC(=O)Nc3c2c(C)nn3-c2ccc(C)c(Cl)c2)c1OC` (configuration not stated) was inactive: 15.5%; that for `COc1ccc2c3c1O[C@H]1[C@H](O)CC[C@H]4[C@@H](C2)N(C)CC[C@@]341` was inactive: -24.3%. The figure for `NC(Cc1cc(O)c(O)cc1O)C(=O)O` (configuration not stated) is inactive: -7.14%; for `COc1cc(CC#N)cc(OC)c1OC` it is inactive: -16.6%; for `CCC(C)C(C)(COC(N)=O)COC(N)=O` (configuration not stated) it is inactive: 5.7%. On to `Cc1cccc(CN2C(=O)CN=C(c3ccccc3)c3ccccc32)c1`, for which the activation was inactive: -27.8%. The figure for `COc1ccc(-n2c(/C=C/c3cccc(F)c3)nc3ccccc3c2=O)cc1Cl` is inactive: -9.03%; for `O=C(N[C@@H]1N=C(c2ccccc2F)c2cccc3c2N(CC3)C1=O)c1cc2ccccc2[nH]1` it is inactive: 2.52%; for `Cc1ccc(NC(=O)Cn2cc(C(=O)c3ccccc3)c3ccccc32)c(C)c1` it is inactive: -16.8%. Take `C[C@]12N[C@H](Cc3ccccc31)c1ccccc12`: the activation is inactive: -7.81%.

In the case of `CCOc1ccc(CN(CCc2ccc3c(c2)OCO3)Cc2ccc(C)cc2)cc1`, the activation is inactive: -35.3%. The value for `O=C1CCCN1CC#CCN1CCCC1` was inactive: -1.05%; that for `CC(C)(C)c1o[nH]c(=O)c1CC(N)C(=O)O` (configuration not stated) was inactive: -3.63%. The value for `CC(C)Cc1nc2cccnc2n1C1CCNCC1` was inactive: -21.4%; that for `Cc1cccc(-n2nc(C)c3c2NC(=O)CSC3c2ccccc2Cl)c1` (configuration not stated) was active: 63.2%. Consider `CCCCC12CN3CC(C)(CN(C1)C3c1ccccn1)C2=O` (configuration not stated), for which the activation is inactive: -18.4%.

Turning to `Oc1cc(Cl)ccc1Oc1ccc(Cl)cc1Cl`, the activation was inactive: -37.1% and inactive: 47.9%. The figure for `CC1(C)C(C=C(Cl)Cl)C1C(=O)OC(C#N)c1cccc(Oc2ccccc2)c1` (configuration not stated) is inactive: -14.2%. The value for `COc1ccc2[nH]cc(CCN(C(C)C)C(C)C)c2c1` was inactive: -50.6%; that for `CCN(CC)C(=O)c1ccc(NC(=O)CCn2nc(-c3ccc(Cl)cc3)c3ccccc3c2=O)cc1` was inactive: 5.02%. As to `Cc1ccc(Cl)c(O)c1`, the activation is inactive: 5.92%. In the case of `CN1C[C@@H](NS(=O)(=O)N(C)C)C[C@@H]2c3cccc4c3c(cn4C)C[C@H]21`, the activation was inactive: -6.56%. Consider `COc1cc(CC(C)N)cc(OC)c1OC` (configuration not stated), for which the activation is inactive: 18%.

With `C[N+](C)(C)CC#CCOC(=O)Nc1cccc(Cl)c1`, the activation is inactive: 4.23%. For the compound `COc1ccc(CN2CCN(C(=O)COc3ccccc3)CC2)c(OC)c1`, the activation was inactive: 4.75%. The figure for `Cc1cccc(C2CC(=O)Oc3c2c(=O)oc2ccccc32)c1` (configuration not stated) is inactive: -11%. On to `CCN(CC)C(=O)c1ccc(NC(=O)CCn2nc(-c3ccc(C)cc3)c3ccccc3c2=O)cc1`, for which the activation was inactive: -26.9%. The value for `C=CCN1CCC23c4c5ccc(O)c4O[C@H]2C(=O)CC[C@@]3(O)C1C5` (some centres not stated) was inactive: -10.4%; that for `Oc1cccc2cccnc12` was inactive: -26.4% and inactive: 6.21%. The value for `CCOc1ccc(CN(CCc2ccc3c(c2)OCO3)Cc2cccc(C)c2)cc1` was inactive: -42.9%; that for `CC(C)(O)C(Cl)(Cl)Cl` was inactive: -1.68%.

`CCCCC(CC)COC(=O)c1ccccc1C(=O)OCC(CC)CCCC` (configuration not stated): the activation was inactive: -17.7%. The figure for `Oc1ccc(Cl)cc1Cc1ccccc1` is inactive: 48.5% and inactive: 45.1%; for `c1ccc(N2CCNCC2)cc1` it is inactive: -8.37%; for `CCCCc1ccc(C(=O)O)nc1` it is inactive: 13%. `CCC1(c2ccccc2)CCC(=O)NC1=O` (configuration not stated): the activation is inactive: -25.7%.

For the compound `c1cc2ccc3cccc4ccc(c1)c2c34`, the activation is inactive: -8.75%.

On to `Oc1ccc2c3c1O[C@H]1c4[nH]c5c(c4C[C@@]4(O)[C@@H](C2)N(CC2CC2)CC[C@]314)C[C@@]1(O)[C@H]2Cc3ccc(O)c4c3[C@@]1(CCN2CC1CC1)[C@H]5O4`, for which the activation is inactive: -13.5%. The value for `COc1ccc2c3c1O[C@H]1[C@@H](O)C=C[C@H]4[C@@H](C2)N(C)CC[C@@]341` was inactive: 12.9%. The value for `Cc1cccc2sc(NC(=O)c3cccn(Cc4ccccc4)c3=O)nc12` was inactive: -4.67%. For the compound `COc1ccc2[nH]cc(CCN)c2c1`, the activation was inactive: -8.16%. The value for `O=C(CN1C(=O)CN=C(c2ccccc2)c2ccccc21)Nc1cccc(C(F)(F)F)c1` was inactive: 33.7%; that for `CCCC1=Nc2cc(C(=O)NC3CCC(C)CC3)ccc2Sc2ccccc21` (configuration not stated) was inactive: -14.3%; that for `CC(C)(C)NCC(O)c1cc(Cl)c(N)c(C(F)(F)F)c1` (configuration not stated) was inactive: -3.65%. The figure for `Cc1cc(NC(=O)c2cccn(Cc3ccccc3)c2=O)no1` is inactive: -5.53%. As for `Cc1ncc(CNC(=O)N(CCCl)N=O)c(N)n1`, the activation is inactive: 9.97% and inactive: -1.7%. The figure for `COc1cc(C[C@@H](C)N)c(OC)cc1C` is inactive: -6.69%. The figure for `CC(N)[C@H](O)c1ccc(O)c(O)c1` (some centres not stated) is inactive: 3.53%; for `CC(C)=CC1C(C(=O)OCN2C(=O)C3=C(CCCC3)C2=O)C1(C)C` (configuration not stated) it is inactive: 28.3%. The figure for `CCCN(CCC)C(=O)Cc1c(-c2ccc(Cl)cc2)nc2ccc(Cl)cn12` is inactive: -44.4%.

For the compound `Clc1cccc(N2CCNCC2)c1`, the activation was inactive: -0.154%. The value for `Clc1ccc(CSC(Cn2ccnc2)c2ccc(Cl)cc2Cl)cc1` (configuration not stated) was inactive: -76.8%; that for `Cc1cc(C)cc(OCC(=O)Nc2ccc(Cl)cc2C(=O)c2ccccc2)c1` was inactive: -17.8%.

Regarding `Oc1c(Br)cc(Br)cc1Br`, the activation was inactive: 22.3%.

Consider `NCCc1cc(O)c(O)cc1O`, for which the activation is inactive: -18.9%.

With `NNc1ccccc1`, the activation was inactive: -11%. Consider `C[C@]12Cc3cn4c(nc3C=C1CCC1C2CC[C@@]2(C)[C@H]1CC[C@@]2(O)C#N)nc1ccccc14` (some centres not stated), for which the activation was inactive: -5.93%. The figure for `COc1ccc(OCC(=O)N2CCN(Cc3cccc(OC)c3OC)CC2)cc1` is inactive: -3.97%; for `CN(C)CCc1c[nH]c2ccc(O)cc12` it is inactive: -6.97%.

Regarding `CCOC(=O)c1ccc(NC(=O)c2sc3nc4c(cc3c2N)N2CCC4CC2)cc1`, the activation was inactive: 20.2%. The figure for `CCCC[N+]1(C)[C@@H]2CC(OC(=O)[C@H](CO)c3ccccc3)C[C@H]1[C@@H]1O[C@@H]12` (some centres not stated) is inactive: -4.34%; for `C=CCN(C1=NCCN1)c1c(Cl)cccc1Cl` it is inactive: 4.83%. The figure for `N#C/C(=C/c1ccc(O)c(O)c1)C(N)=S` is inactive: -46%; for `CC[C@@]1(O)C(=O)OCc2c1cc1n(c2=O)Cc2cc3ccccc3nc2-1` it is inactive: 9.25%.
